# Test results taken from the supplement of paper PMC3334620.
# The full ranking holds about 33,000 sequences; the median of “E-score (-0.5 to 0.5)” is about -0.036, and the highest 2% start at about 0.37. The list shows a part of the results.
# Biological target: T1, Yer064c (UniProt P40041)
# T1 sequence: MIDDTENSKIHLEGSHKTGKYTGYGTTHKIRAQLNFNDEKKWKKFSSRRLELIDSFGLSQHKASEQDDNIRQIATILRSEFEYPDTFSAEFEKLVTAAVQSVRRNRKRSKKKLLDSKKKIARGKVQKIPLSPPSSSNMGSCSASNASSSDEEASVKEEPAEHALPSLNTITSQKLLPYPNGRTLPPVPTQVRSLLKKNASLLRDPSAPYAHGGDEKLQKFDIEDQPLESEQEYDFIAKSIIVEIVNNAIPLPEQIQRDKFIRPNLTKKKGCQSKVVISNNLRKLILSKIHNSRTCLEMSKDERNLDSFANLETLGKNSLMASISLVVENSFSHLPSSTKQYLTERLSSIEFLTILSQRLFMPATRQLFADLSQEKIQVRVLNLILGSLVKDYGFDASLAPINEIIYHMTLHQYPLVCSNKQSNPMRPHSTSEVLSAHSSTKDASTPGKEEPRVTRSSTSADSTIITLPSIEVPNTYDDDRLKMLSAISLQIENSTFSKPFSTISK
# Assay: PBM E-score (8-mer binding enrichment) (E-score (-0.5 to 0.5)); higher = stronger / more preferred TF binding; most listed sequences are background and not binding sites
# Details: protein concentration: 200 nM; construct: GST-full length
# Outline: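 Full-length yeast transcription factors or their DNA-binding domains, GST-tagged and expressed with PURExpress, were applied at about 100-200 nM to universal all-10-mer Agilent arrays. These arrays had been made double-stranded by primer extension on fresh or once-stripped slides. Detection used fluorescent anti-GST, normalisation used masliner, and E-scores for ungapped eight-base words pooled with reverse complements came from the Universal PBM Analysis Suite.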
row,Sequence,PBM E-score
1,ACGTCTTA,-0.103
2,CCGCGGCC,-0.238
3,CGCTGCCG,-0.17
4,GACGGGCC,-0.298
5,TAACTAAA,0.0425
6,TGCCTAAA,-0.234
7,CAACGCTG,-0.207
8,AGCGTTTA,-0.164
9,AGTGCTCC,-0.147
10,CGAACCAC,0.00756
11,AACCGATT,0.0217
12,AAAATGTT,-0.122
13,GTAAATCA,0.349
14,GCTGGACC,-0.21
15,GAGTAATC,0.316
16,ATGTATCA,0.181
17,AGAATCAG,0.325
18,CAGGCATA,-0.0996
19,GATAGCAC,-0.202
20,GACTGCTC,0.208
21,TCCCACCA,-0.172
22,CGGAACAG,0.0244
23,GAAGCCGC,-0.262
24,AAGTACGA,0.0389
25,GGGACGGA,-0.374

row,Sequence,PBM E-score
1,CACACTAA,0.126
2,CCGTCTCC,-0.236
3,CAGGAGCG,-0.185
4,AAGGGTGA,0.103
5,GTGAGCGA,-0.0985
6,AGGCTGAA,-0.0156
7,GACCGTGC,-0.142
8,AGAGACCC,-0.233
9,ACTCGTAT,0.107
10,ACTTAACT,0.224
11,CAATGGAC,-0.0225
12,CTCGGGCC,-0.0244
13,CTGGGCTC,-0.201
14,GAGCGAAA,0.0368
15,CCCAGACC,-0.294
16,CGAGTCCA,0.0419
17,ACCACAAC,0.0173
18,ATTTAGCG,0.0246
19,CCGCCCAG,-0.0878
20,GACTGCTA,0.127
21,ACTGCATA,0.207
22,ACAACCAA,0.0473
23,GAGCATAC,-0.118
24,AAAGCTTA,-0.0514
25,CGAATTCC,-0.165

row,Sequence,PBM E-score
1,AGTCCCAC,0.153
2,ATGCAATA,-0.0465
3,TCACTTCA,0.0139
4,GCAACAAC,-0.163
5,CGAAATAA,0.11
6,AGCACCGG,-0.0612
7,GGTGTAGA,-0.12
8,GCCTGGCA,-0.261
9,ATCTCCAC,-0.166
10,AATAAAAT,0.247
11,AAGCGTTC,-0.111
12,GATTCCCA,0.208
13,AGACATCT,0.166
14,AGCATCCT,-0.331
15,GGAGCGTA,-0.0496
16,ACAAATAT,-0.0832
17,AGACAACA,-0.156
18,TCTCTCAA,0.138
19,AAGACACC,0.0365
20,ATTAGTCC,0.373
21,AAACTAAC,-0.0125
22,ACTCGTTA,0.173
23,CTGGTAAG,0.0225
24,ACATATTA,-0.00112
25,AAGAGGAA,-0.0236

row,Sequence,PBM E-score
1,AGGTTTGA,-0.0517
2,ATGTGTGG,-0.0283
3,GGCGGTAC,-0.162
4,GATGCGCA,-0.189
5,TCAGCGCA,0.0178
6,CTAGAATC,0.229
7,GCTTGGCC,-0.215
8,CTTTAAAG,0.00814
9,CATGTCAG,0.00961
10,CTGTCACC,-0.126
11,GAAGCCTA,-0.143
12,AGTGAGCC,0.215
13,GATCAAAC,0.0273
14,AGTTGACG,0.129
15,CATCACTC,0.0183
16,TCAGCCCA,0.0126
17,CACTAACA,0.0977
18,ATCGTCAT,0.0309
19,CGTTTCAC,-0.229
20,ACACGAAC,-0.0269
21,CCTTCAAC,-0.0733
22,ACGACTGG,0.148
23,CCTGCCTC,-0.25
24,CCCGTACG,-0.197
25,CGGGGCAA,-0.178

row,Sequence,PBM E-score
1,AGACTATA,0.35
2,AATTTCCT,-0.111
3,CAGGATCC,-0.299
4,TTAGAGAA,0.0144
5,CGCTTGCC,-0.312
6,CACGGACG,-0.0942
7,CGACGTCA,-0.00769
8,CAATTAAA,0.136
9,AGTAAACC,-0.0239
10,ACCGAAGT,0.062
11,CGGACACA,-0.0532
12,GGGAGGAC,-0.176
13,ATGCCTCC,-0.18
14,CCCTCAGA,-0.025
15,GAACCCCC,-0.367
16,AATAGTCC,0.241
17,GATCGGAC,0.0215
18,GTTACCCA,0.188
19,AGGTGGTC,-0.0833
20,ATATGCAC,-0.0861
21,AAGTATCA,-0.0667
22,ATCGTTGG,0.047
23,GCGATAGA,-0.182
24,ACCTGAGG,-0.0511
25,AAGATTAC,0.241

row,Sequence,PBM E-score
1,GCTACACC,-0.0406
2,ACACGCGG,-0.141
3,ATATAGCA,-0.00055
4,CAAACCAA,-0.0441
5,ACATGTAG,0.00967
6,GCCTGGAA,0.0365
7,CGCTACCC,-0.099
8,CAACACTG,-0.0078
9,AGTACAAA,0.271
10,CGGCGATA,0.143
11,CGTTCAGA,-0.0244
12,AAACTGCC,0.11
13,CGATAACA,-0.226
14,ATGATGCA,0.0908
15,ATTGCATA,-0.0593
16,CCGCAGAG,-0.0387
17,AACACGAG,-0.0565
18,AAGCATGG,-0.179
19,ACACAAAT,0.00029
20,ACTGATAT,0.0497
21,AGCTAACC,-0.0695
22,ATGAGGAG,-0.026
23,AGAAGCCA,-0.0348
24,ATCGATGC,-0.198
25,CCCGTCAC,-0.276

row,Sequence,PBM E-score
1,GACGATAA,-0.172
2,AGCGGCAT,-0.184
3,CTTAATGA,0.164
4,CCGACTAG,0.0841
5,AAATTTAT,0.0633
6,TTCACCAA,-0.0917
7,GCATTTCC,-0.0262
8,GTCCAGGA,-0.0124
9,GATCTTCC,-0.161
10,AATCACGG,0.322
11,AGTATCAC,-0.09
12,CCACACGG,-0.161
13,ATGCGGAA,-0.0206
14,GTCGTACA,0.19
15,CGGCACAG,-0.185
16,GAGATTTA,0.00633
17,AACACTAC,0.0587
18,CACTATGC,0.0417
19,AGAATCGC,0.127
20,CCGCGAAA,0.13
21,CAAAGCTA,-0.0479
22,ACGCCAAA,-0.099
